Test [1] has as its target Serine/threonine-protein kinase 26 (Homo sapiens) (UniProt Q9P289). The following applies: at 1 µM.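 Note: mean inhibition of MST4 kinase activity, reported from the GSK PKIS inhibitor-set screening panel.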
The target in test [2] is Serine/threonine-protein kinase PAK 1 (Homo sapiens) (UniProt Q13153). The note with it: at 0.1 µM.
Test [3] shares this target. The note with it: at 1 µM.
Test [4] concerns the target Serine/threonine-protein kinase PAK 2 (Homo sapiens) (UniProt Q13177). The following applies: at 0.1 µM.
UniProt Q13177, sequence (Q13177 whole entry): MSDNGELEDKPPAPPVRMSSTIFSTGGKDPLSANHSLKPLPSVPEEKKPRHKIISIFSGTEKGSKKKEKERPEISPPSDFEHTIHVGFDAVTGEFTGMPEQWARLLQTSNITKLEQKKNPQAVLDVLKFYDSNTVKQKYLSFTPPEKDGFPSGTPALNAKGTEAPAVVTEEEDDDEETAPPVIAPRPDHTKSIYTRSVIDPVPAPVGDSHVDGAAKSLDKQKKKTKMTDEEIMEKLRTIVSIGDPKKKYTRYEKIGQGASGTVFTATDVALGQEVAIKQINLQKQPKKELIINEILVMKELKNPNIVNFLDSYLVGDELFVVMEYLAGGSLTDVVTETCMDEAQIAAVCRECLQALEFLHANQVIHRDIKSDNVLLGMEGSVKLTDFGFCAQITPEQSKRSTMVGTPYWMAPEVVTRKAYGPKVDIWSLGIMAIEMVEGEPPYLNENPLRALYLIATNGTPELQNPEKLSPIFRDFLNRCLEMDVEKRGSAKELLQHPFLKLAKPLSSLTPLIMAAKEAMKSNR
Test [5] shares this target. The note with it: at 1 µM.
Test [6] addresses Serine/threonine-protein kinase PAK 3 (Homo sapiens) (UniProt O75914). The note with it: at 0.1 µM.
UniProt O75914, sequence (O75914 whole entry, looked up): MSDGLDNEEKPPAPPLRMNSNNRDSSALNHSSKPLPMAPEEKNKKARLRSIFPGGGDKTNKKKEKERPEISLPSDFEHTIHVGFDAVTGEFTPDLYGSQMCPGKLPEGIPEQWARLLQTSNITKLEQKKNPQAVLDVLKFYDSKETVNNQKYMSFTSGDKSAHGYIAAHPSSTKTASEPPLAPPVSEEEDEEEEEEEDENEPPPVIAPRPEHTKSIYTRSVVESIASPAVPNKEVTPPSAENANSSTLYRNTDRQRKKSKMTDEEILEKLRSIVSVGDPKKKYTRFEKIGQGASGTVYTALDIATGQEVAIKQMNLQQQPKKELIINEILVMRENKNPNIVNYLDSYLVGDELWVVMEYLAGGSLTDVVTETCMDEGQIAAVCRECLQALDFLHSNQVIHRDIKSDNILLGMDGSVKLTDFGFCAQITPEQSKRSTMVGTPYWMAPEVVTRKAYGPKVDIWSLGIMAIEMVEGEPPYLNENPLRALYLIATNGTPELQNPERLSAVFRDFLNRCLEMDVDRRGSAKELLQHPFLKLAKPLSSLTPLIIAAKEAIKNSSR
For test [7] the target is unchanged. The note with it: at 1 µM.
The target of test [8] is Serine/threonine-protein kinase PAK 5 (Homo sapiens) (UniProt Q9P286). The following applies: at 0.1 µM.
UniProt Q9P286, sequence (Q9P286 whole entry, looked up): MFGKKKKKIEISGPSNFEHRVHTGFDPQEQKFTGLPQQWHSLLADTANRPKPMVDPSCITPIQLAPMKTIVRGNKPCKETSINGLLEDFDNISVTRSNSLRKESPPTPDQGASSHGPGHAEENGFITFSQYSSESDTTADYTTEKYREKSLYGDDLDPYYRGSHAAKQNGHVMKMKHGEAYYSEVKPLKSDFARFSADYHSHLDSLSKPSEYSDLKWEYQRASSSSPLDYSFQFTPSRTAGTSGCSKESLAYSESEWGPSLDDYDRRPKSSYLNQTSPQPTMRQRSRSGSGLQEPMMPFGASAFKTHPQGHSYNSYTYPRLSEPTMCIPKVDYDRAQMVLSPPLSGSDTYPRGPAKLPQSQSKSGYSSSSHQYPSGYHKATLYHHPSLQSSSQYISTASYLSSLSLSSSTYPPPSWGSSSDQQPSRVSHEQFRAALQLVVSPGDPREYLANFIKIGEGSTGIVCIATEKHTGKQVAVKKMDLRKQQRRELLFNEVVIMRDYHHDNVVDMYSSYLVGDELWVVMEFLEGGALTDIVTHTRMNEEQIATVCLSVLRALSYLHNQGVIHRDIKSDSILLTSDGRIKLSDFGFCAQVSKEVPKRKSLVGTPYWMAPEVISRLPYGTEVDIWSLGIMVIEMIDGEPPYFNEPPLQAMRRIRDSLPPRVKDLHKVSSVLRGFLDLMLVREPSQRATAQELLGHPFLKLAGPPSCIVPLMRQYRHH
Test [9] has the same target. The note with it: at 1 µM.
The test system of test [10] is Tyrosine-protein kinase ABL1 (Homo sapiens), P00519 [E255K]. The note with it: at 0.1 µM.
Test [11] has the same test system. The note with it: at 1 µM.
The subject of test [12] is Tyrosine-protein kinase ABL1 (Homo sapiens), P00519 [H396P]. The note with it: at 0.1 µM.
The test system is the same in test [13]. The note with it: at 1 µM.
The test system of test [14] is Tyrosine-protein kinase ABL1 (Homo sapiens), P00519 [M351T]. The following applies: at 0.1 µM.
Test [15] shares this test system. The following applies: at 1 µM.
Test [16] has as its system Tyrosine-protein kinase ABL1 (Homo sapiens), P00519 [Q252H]. The following applies: at 0.1 µM.
Test [17] shares this test system. The following applies: at 1 µM.
Test [18] has as its system Tyrosine-protein kinase ABL1 (Homo sapiens), P00519 [T315I]. The note with it: at 0.1 µM.
Test [19] deals with Serine/threonine-protein kinase PAK 6 (Homo sapiens) (UniProt Q9NQU5). The note with it: at 0.1 µM.
UniProt Q9NQU5, sequence (Q9NQU5 whole entry, looked up): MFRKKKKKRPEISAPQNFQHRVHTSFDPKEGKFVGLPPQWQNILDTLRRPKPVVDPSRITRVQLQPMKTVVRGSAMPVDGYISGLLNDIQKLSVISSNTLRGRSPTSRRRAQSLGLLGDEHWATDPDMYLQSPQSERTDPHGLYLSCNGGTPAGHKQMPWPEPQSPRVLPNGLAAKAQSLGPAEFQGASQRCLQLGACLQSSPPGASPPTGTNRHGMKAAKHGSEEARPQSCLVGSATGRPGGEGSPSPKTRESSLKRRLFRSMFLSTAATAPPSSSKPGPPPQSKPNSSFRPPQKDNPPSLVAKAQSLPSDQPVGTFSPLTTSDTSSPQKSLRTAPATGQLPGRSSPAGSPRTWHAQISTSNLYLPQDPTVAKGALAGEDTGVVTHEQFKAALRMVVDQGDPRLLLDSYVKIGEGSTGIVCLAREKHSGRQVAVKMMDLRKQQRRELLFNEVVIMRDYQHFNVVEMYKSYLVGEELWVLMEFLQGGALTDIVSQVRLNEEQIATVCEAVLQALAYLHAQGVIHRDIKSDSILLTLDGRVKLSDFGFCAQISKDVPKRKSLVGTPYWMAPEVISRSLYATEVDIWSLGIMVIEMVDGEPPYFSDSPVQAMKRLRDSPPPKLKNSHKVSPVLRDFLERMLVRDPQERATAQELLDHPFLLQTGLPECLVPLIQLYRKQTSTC
For test [20] the target is unchanged. The note with it: at 1 µM.

For some of these results: Most of the strong results are listed elsewhere, so they are rarer here than in the full data. The list shows a part of the results, in another mix than the full data.

UniProt Q9P289, sequence (Q9P289 whole entry, looked up): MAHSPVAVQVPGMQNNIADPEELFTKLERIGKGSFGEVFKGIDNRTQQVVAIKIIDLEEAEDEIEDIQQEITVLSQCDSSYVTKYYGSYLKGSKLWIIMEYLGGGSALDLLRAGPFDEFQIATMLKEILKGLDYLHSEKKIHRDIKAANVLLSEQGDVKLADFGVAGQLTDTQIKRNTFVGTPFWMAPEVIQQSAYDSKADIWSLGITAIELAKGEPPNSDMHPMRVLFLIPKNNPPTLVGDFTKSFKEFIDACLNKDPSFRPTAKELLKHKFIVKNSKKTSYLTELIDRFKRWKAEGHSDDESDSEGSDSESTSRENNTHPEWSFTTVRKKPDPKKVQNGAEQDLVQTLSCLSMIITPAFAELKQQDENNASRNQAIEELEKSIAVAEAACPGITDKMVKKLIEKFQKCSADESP
UniProt Q13153, sequence (Q13153 whole entry): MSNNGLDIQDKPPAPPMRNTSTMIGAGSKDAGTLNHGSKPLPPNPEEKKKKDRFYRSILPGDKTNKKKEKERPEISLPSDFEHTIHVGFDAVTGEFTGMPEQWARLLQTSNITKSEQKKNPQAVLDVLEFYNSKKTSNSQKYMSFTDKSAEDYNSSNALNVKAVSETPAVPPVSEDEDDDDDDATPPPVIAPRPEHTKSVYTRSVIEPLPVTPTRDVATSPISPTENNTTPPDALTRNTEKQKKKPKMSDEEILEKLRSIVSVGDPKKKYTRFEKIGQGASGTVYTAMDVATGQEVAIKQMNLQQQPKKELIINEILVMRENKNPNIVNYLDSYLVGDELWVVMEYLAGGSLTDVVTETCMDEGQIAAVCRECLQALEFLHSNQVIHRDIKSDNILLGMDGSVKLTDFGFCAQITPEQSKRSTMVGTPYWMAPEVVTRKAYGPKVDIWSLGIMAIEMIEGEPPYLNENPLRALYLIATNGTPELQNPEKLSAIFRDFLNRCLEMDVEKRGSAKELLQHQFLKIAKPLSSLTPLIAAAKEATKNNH

What is called inhibition is the change of the read-out against control, counted positive when it falls. As to `Fc1ccc(-c2ncn(C3CCNCC3)c2-c2ccnc(Oc3ccc(Cl)cc3)n2)cc1`, the inhibition in [1] is 0%; in test [2] it was 5.82%; in [3], 3.96%; in test [4], -0.15%; in test [5], -0.01%; in test [6], 0.29%. Moreover, the inhibition is 1.84% in test [7]; 0.4% in [8]; 0.8% in test [9]; 0.61% in test [10]; 1.68% in [11]; 1.78% in test [12]. Moreover, the inhibition is 2.1% in [13]; -0.43% in test [14]; 3.39% in test [15]; -0.08% in [16]; 1.98% in [17]; 0.91% in test [18].
In the case of `COc1ccccc1C1=C(Nc2ccccc2)C(=O)NC1=O`, the inhibition amounted to 15.3% in [1]; 5.15% in test [2]; 8.18% in test [3]; 1.63% in test [4]; 1.82% in [5]; 3.13% in [6]. Moreover, the inhibition in [7] is 3.76%; in [8], 1.79%; in [9], 2.53%; in test [19], -8.52%; in [20], 2.59%; in [10] it was 0.25%. Besides, the inhibition in test [11] is 7.26%; in [12] it was 5.12%; in [13], 17.5%; in test [14], 4.29%; in [15], 16.6%; in test [16] it was 4.69%. The inhibition in [17] turned out to be 16.8%; in test [18] it was 3.65%.
Regarding `Fc1ccc(-c2ncn(C3CCNCC3)c2-c2ccnc(Oc3cccc(F)c3)n2)cc1`, the inhibition in test [1] is 1.08%; in test [2] it was 8.78%; in test [3], 11.6%; in test [4] it was 2.09%; in test [5] it was 1.6%; in test [6] it was 5.36%. The inhibition in test [7] is 9.66%; in [8], 2.77%; in test [9], 1.46%; in test [19], -6.58%; in test [20], -7.2%; in test [10], 1.93%. For the same compound, the inhibition in test [11] was 3.41%; in test [12] it was 5.32%; in test [13], 6.96%; in [14] it was 0.57%; in test [15], 3.04%; in test [16] it was 3.71%. The inhibition in test [17] is 5.14%; in [18], 3.41%.
Consider `Fc1ccc(-c2ncn(C3CCNCC3)c2-c2ccnc(Oc3cccc(C(F)(F)F)c3)n2)cc1`, for which the inhibition in test [1] was determined as 4.79%; in test [2], 9.43%; in test [3] it was 7.76%; in [4], 2.26%; in [5] it was 2.63%; in test [6], 6.83%. Further, the inhibition in test [7] is 5.85%; in test [9], 1.97%; in test [19] it was -8.11%; in test [20] it was -4.55%; in test [10] it was 3.44%; in test [11], 4.64%. Further, the inhibition is 4.67% in test [12]; 6.23% in test [13]; 2.52% in [14]; 3.25% in test [15]; 5.29% in test [16]; 5.37% in [17]. For the same compound, the inhibition in [18] was 2.52%.
Take `O=C1NC(=O)C(c2cccc([N+](=O)[O-])c2)=C1Nc1cc(Cl)c(O)c(Cl)c1`: the inhibition in [1] is 10.5%; in [2], 1.01%; in [3] it was -0.91%; in [4], 0.79%; in test [5] it was -1%; in [6], 2.75%. In addition, the inhibition in test [7] was 0.99%; in [8] it was -0.76%; in test [9], -2.87%; in test [19], 2.58%; in [20], 3.31%; in [10], 0.35%. The inhibition in test [11] was 1.28%; in test [12] it was 2.05%; in [13] it was 0.91%; in [14], -0.57%; in [15] it was 1.66%; in [16], 1.36%. Moreover, the inhibition in test [17] was 0.95%; in [18] it was 2.36%.
As to `NC(=O)CCc1ccccc1Oc1nccc(-c2c(-c3ccc(F)cc3)ncn2C2CCNCC2)n1`, the inhibition in test [1] was -2.71%; in test [2], -2.57%; in [3], -3.43%; in test [4], -0.9%; in test [5], -0.98%; in test [6], -2.54%. Besides, the inhibition in test [7] is -0.57%; in test [8] it was -1.05%; in test [9] it was 1.78%; in test [20], -6.74%; in test [10], -0.66%; in [11] it was -0.46%. Besides, the inhibition in test [12] is -1.55%; in [13] it was 0.15%; in test [14], 0.79%; in [15], 0.61%; in test [16], 0.49%; in [17], 0.64%. The inhibition in test [18] is -0.83%.
Turning to `O=C1NC(=O)C(c2ccccc2Cl)=C1Nc1cc(Cl)c(O)c(Cl)c1`, the inhibition came out at 3.41% in test [1]; 5.47% in [2]; 2.78% in test [3]; 1.74% in [4]; 2.21% in test [5]; 3.89% in test [6]. Also, the inhibition in test [7] is 2.79%; in test [8], 7.33%; in test [9], 2.96%; in [19], 2.18%; in test [20], 2.83%; in [10], 3.35%. Moreover, the inhibition in test [11] was 3.75%; in test [12], 3.38%; in test [13] it was 6.54%; in test [14], 2.32%; in test [15], 4.78%; in [16], 2.34%. Further, the inhibition in test [17] is 5.46%; in test [18] it was 2.52%.

The values are drawn from ChEMBL document CHEMBL1961873, “Compounds: GSK PKIS; Assays: Nanosyn kinase panel” (2012).
